Source: the supplement of paper PMC12340641
In all, about 1,000 compounds were measured (“relative growth recovery (pomalidomide 10 uM = 100%, DMSO = 0%)”: median about -1.6, highest 2% from about 21 on). The list shows a part of the results.

Test system: HEK293FT dCK*-IKZF1
Assay: relative growth recovery (pomalidomide 10 uM = 100%, DMSO = 0%); higher = more growth rescue (IKZF1 fusion degradation)
Conditions: compound concentration: 5 uM; AraC concentration: 0.3 uM; overnight pretreatment + 4 days AraC
Description: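 Growth recovery screen of the molecular-glue-like (Specs) library. HEK293FT cells expressing a dCK*-IKZF1 fusion (primary) or dCK* alone (counter) were pretreated overnight with compound at 5 uM, then given 0.3 uM AraC for 4 days. Hoechst nuclei were counted by imaging. Primary: normalised to pomalidomide (100%) and DMSO (0%), mean of 2 replicates. Counter: normalised to no-AraC (100%) and AraC+DMSO (0%), single replicate.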

In order of rising relative growth recovery:
1. Cc1cnc(Nc2cccc(C3CCCN3CC(N)=O)n2)s1 (centres undefined)  -20.7%
2. Cc1cnc(Nc2cccc(C3CCN(C(=O)C4(NC(=O)CC(C)C)CCCCC4)CC3)n2)s1  -17.9%
3. Cc1cnc(Nc2cccc(C3CCN(C(=O)C4CCCCC4C(=O)N4CCCC4)CC3)n2)s1 (centres undefined)  -17.5%
4. Cc1ccc(C(C)(C)C(=O)N2CCCC2c2cccc(Nc3ncc(C)s3)n2)cc1 (centres undefined)  -16.8%
5. CCCc1cnc(Nc2cccc(C3CCN(C(=O)CN(C)C)CC3)n2)s1  -16.6%
6. Cc1cnc(Nc2cccc(C3CCN(C(=O)C4(NC(=O)CC(C)(C)C)CCCCC4)CC3)n2)s1  -16.1%
7. Cc1cnc(Nc2cccc(C3CCN(C(=O)CC4(O)CCCCC4)CC3)n2)s1  -16%
8. CNCC(=O)N1CCC(c2cccc(Nc3ncc(-c4cccnc4)s3)n2)CC1  -15%
9. CCCCc1cnc(Nc2cccc(C3CCN(C(=O)C4(C)CCCN4C(=O)OC(C)(C)C)CC3)n2)s1 (centres undefined)  -14.5%
10. Cc1cnc(Nc2cccc(C3CN(C(=O)Cn4c(CC(C)C)nc5ccccc54)CCO3)n2)s1 (centres undefined)  -13.6%
11. Cc1cnc(Nc2cccc(C3CCN(C(=O)C4CC(=O)N(C)C4)CC3)n2)s1 (centres undefined)  -12.4%
12. Cc1cnc(Nc2cccc(C3CCN(C(=O)C4CCCC(C)C4)CC3)n2)s1 (centres undefined)  -10.7%
13. CCCCc1cnc(Nc2cccc(C3CCN(C(=O)C4CCCCC4)CC3)n2)s1  -10.6%
14. Cc1cnc(Nc2cccc(C3CCN(CC(=O)Nc4ccc(F)cc4)CC3)n2)s1  -10.2%
15. O=C(NCc1cnc(Nc2cccc(C3CCN(C(=O)C4CCCCC4)CC3)n2)s1)c1cccc(F)c1  -9.71%
16. Cc1cnc(Nc2cccc(CC3CCN(C(=O)c4ccccc4F)CC3)n2)s1  -9.56%
17. COc1ccc(CC(=O)Nc2ccc(S(=O)(=O)Nc3cc(OC)nc(OC)n3)cc2)cc1  -8.12%
18. COc1ccc2[nH]c3nc(SCC(=O)Nc4cccc(F)c4)nnc3c2c1  -7.96%
19. O=S(=O)(Nc1ncccn1)c1ccc(-n2cccc2)cc1  -7.87%
20. Cc1ccc(C)c(OCC(=O)Nc2ccc(S(=O)(=O)Nc3ncccn3)cc2)c1C  -7.75%
21. Cc1ccc(NC(=O)CSc2nnc3c(n2)[nH]c2ccc(F)cc23)cc1Cl  -7.58%
22. O=C(O)CCOCCOCCOCCOCCNc1ccc2c(c1)C(=O)N(C1CCC(=O)NC1=O)C2=O (centres undefined)  -7.41%
23. COCC(=O)N1CCCC1c1cccc(Nc2nc(C)cs2)n1 (centres undefined)  -7.27%
24. Cc1cnc(Nc2cccc(C3CN(C(=O)Cc4ccccc4)CCO3)n2)s1 (centres undefined)  -6.84%
25. CC(C)C(C(=O)Nc1ccc(S(=O)(=O)Nc2ncccn2)cc1)N1C(=O)c2ccccc2C1=O (centres undefined)  -6.84%
26. COc1cccc(OC)c1C(=O)Nc1ccc(S(=O)(=O)Nc2ncccn2)cc1  -5.34%
27. CC(C)C(=O)Nc1ccc(C(=O)Nc2ccc(S(=O)(=O)Nc3ncccn3)cc2)cc1  -5.28%
28. Cc1cc(C)nc(NS(=O)(=O)c2ccc(NC(=O)COc3ccc4ccccc4c3)cc2)n1  -5.12%
29. CCOc1ccc(/C=C/C(=O)Nc2ccc(S(=O)(=O)Nc3cc(C)nc(C)n3)cc2)cc1OC  -5.05%
30. Cc1ccnc(NS(=O)(=O)c2ccc(NC(=O)CCCc3ccccc3)cc2)n1  -4.65%
31. COc1cc(NS(=O)(=O)c2ccc(NC(=O)c3ccccc3)cc2)nc(OC)n1  -4.58%
32. Cc1cc(C)nc(NS(=O)(=O)c2ccc(NC(=O)CSc3nnnn3-c3ccccc3)cc2)n1  -4.58%
33. Cc1cc(C)nc(NS(=O)(=O)c2ccc(NC(=O)CSc3nc(C)cc(C)n3)cc2)n1  -4.42%
34. O=C(CCC1CCCCC1)Nc1ccc(S(=O)(=O)Nc2ncccn2)cc1  -4.24%
35. CC(C)c1ccc(OCC(=O)Nc2ccc(S(=O)(=O)Nc3ncccn3)cc2)cc1  -4.12%
36. Nc1ccc(S(=O)(=O)Nc2nccc(/C=C/c3ccc(Br)s3)n2)cc1  -3.98%
37. Cc1cnc(Nc2cccc(CC3CCN(C(=O)c4ccccc4)CC3)n2)s1  -3.71%
38. Cc1cc(C)nc(NS(=O)(=O)c2ccc(NC(=O)Nc3ccccc3)cc2)n1  -3.6%
39. O=C(CCCOc1ccccc1)Nc1ccc(S(=O)(=O)Nc2ccccn2)cc1  -3.42%
40. Cc1ccnc(NS(=O)(=O)c2ccc(NS(C)(=O)=O)cc2)n1  -3.19%
41. O=C(Nc1ccc(S(=O)(=O)Nc2ncccn2)cc1)c1ccc2c(c1)OCO2  -3.11%
42. CC(=O)Nc1ccc(Oc2ccc3c(c2)C(=O)N(c2cccc(OC(C)=O)c2)C3=O)cc1  -2.87%
43. C=CCc1cccc(CNc2ccc(S(=O)(=O)Nc3nccnc3OC)cc2)c1O  -2.75%
44. CC(C)c1ccccc1OCC(=O)Nc1ccc(S(=O)(=O)Nc2ccccn2)cc1  -2.54%
45. Cc1cnc(Nc2cccc(C3CN(C(=O)C4C5CCCCC54)CCO3)n2)s1 (centres undefined)  -2.5%
46. CC(C)(C)C(=O)Nc1ccc(S(=O)(=O)Nc2ncccn2)cc1  -2.37%
47. Cc1ccc(C(=O)Nc2ccc(S(=O)(=O)Nc3nc(C)cc(C)n3)cc2)cc1  -2.35%
48. Cc1ccnc(NS(=O)(=O)c2ccc(NC(=O)C3CCCCC3)cc2)n1  -2.31%
49. Cc1cc(Cl)ccc1OCCCC(=O)Nc1ccc(S(=O)(=O)Nc2ncccn2)cc1  -2.29%
50. CCC(=O)Nc1ccc(Oc2ccc3c(c2)C(=O)N(c2ccc(O)cc2)C3=O)cc1  -2.1%
51. COc1ccc(OCCCC(=O)Nc2ccc(S(=O)(=O)Nc3nc(C)cc(C)n3)cc2)cc1  -2.08%
52. Cc1cc(NS(=O)(=O)c2ccc(NC(=O)c3ccccc3C)cc2)nc(C)n1  -1.93%
53. COc1cc(NS(=O)(=O)c2ccc(Nc3nc(-c4sc(C)nc4C)cs3)cc2)nc(OC)n1  -1.67%
54. O=C(Cc1cccs1)Nc1ccc(Oc2ccc3c(c2)C(=O)N(c2ccc(O)cc2)C3=O)cc1  -1.26%
55. Cc1cc(C)nc(NS(=O)(=O)c2ccc(Nc3nc(-c4cccnc4)cs3)cc2)n1  -1.15%
56. COCC(=O)Nc1ccc(S(=O)(=O)Nc2ccccn2)cc1  -1.12%
57. Cc1csc(Nc2cccc(C3CCCN3C(=O)CC3CC(C)(C)NC(C)(C)C3)n2)n1 (centres undefined)  -0.835%
58. Cc1ccnc(NS(=O)(=O)c2ccc(NC(=O)Cc3c(F)cccc3Cl)cc2)n1  -0.465%
59. Cc1cccc(C(=O)Nc2ccc(S(=O)(=O)Nc3cc(C)nc(C)n3)cc2)c1  -0.425%
60. Cc1cc(C)nc(NS(=O)(=O)c2ccc(NC(=O)CCCOc3ccc(Cl)cc3)cc2)n1  -0.33%
61. O=C(CSCc1ccccc1)Nc1ccc(S(=O)(=O)Nc2ncccn2)cc1  -0.225%
62. O=C(C1CCCCC1)N1CCOC(c2cccc(Nc3ncc(Cc4cccc(Cl)c4)s3)n2)C1 (centres undefined)  -0.2%
63. Cc1cc(C)nc(NS(=O)(=O)c2ccc(NC(=O)c3ccccc3C(=O)O)cc2)n1  0.245%
64. CCc1nccn1CC(=O)N1CCOC(c2cccc(Nc3ncc(C)s3)n2)C1 (centres undefined)  0.35%
65. CCOC(=O)c1ccc(N2C(=O)c3ccc(Oc4cccc(N)c4)cc3C2=O)cc1  0.65%
66. O=C(Nc1ccc(S(=O)(=O)Nc2ncccn2)cc1)c1cc(Cl)ccc1Cl  0.76%
67. COc1ccc(NS(=O)(=O)c2ccc(NS(=O)(=O)c3ccccc3[N+](=O)[O-])cc2)nn1  0.77%
68. CCOCCC(=O)Nc1ccc(S(=O)(=O)Nc2nccc(C)n2)cc1  0.77%
69. COc1cccc(C(=O)Nc2ccc(S(=O)(=O)Nc3cc(C)nc(C)n3)cc2)c1  0.84%
70. CCOC(=O)c1nc[nH]c1C(=O)N1CCOC(c2cccc(Nc3ncc(C)s3)n2)C1 (centres undefined)  0.895%
71. Cc1ccnc(NS(=O)(=O)c2ccc(NC(=O)c3ccc4c(c3)OCO4)cc2)n1  0.925%
72. Cc1cc(C)cc(OCC(=O)Nc2ccc(S(=O)(=O)Nc3cc(C)nc(C)n3)cc2)c1  0.995%
73. COc1cc(NS(=O)(=O)c2ccc(NC(=O)/C=C/c3ccco3)cc2)nc(OC)n1  1.19%
74. Cc1cc(C)nc(NS(=O)(=O)c2ccc(NC(=O)CCN3C(=O)c4ccccc4C3=O)cc2)n1  1.37%
75. Cc1ccnc(NS(=O)(=O)c2ccc(NC(=O)c3ccc(-c4ccccc4)cc3)cc2)n1  1.61%
76. O=C1CCC(N2C(=O)c3ccc(N4CCC(C(=O)O)CC4)cc3C2=O)C(=O)N1 (centres undefined)  1.72%
77. Cc1cnc(Nc2cccc(C(C(=O)N(C)C)C3CCN(C(=O)c4cccc(Cl)c4F)CC3)n2)s1 (centres undefined)  1.75%
78. CCOC(=O)CN(C(=O)CSc1nnc2c(n1)[nH]c1ccc(OC)cc12)c1ccc(F)cc1  2.35%
79. O=C(CN1C(=O)c2ccccc2C1=O)Nc1ccc(S(=O)(=O)Nc2ncccn2)cc1  2.43%
80. O=C1CCC(N2C(=O)c3cccc(O)c3C2=O)C(=O)N1 (centres undefined)  2.45%
81. Cc1ccc(S(=O)(=O)Nc2ccc(S(=O)(=O)Nc3nccc(C)n3)cc2)cc1  2.65%
82. O=C1CCC(N2C(=O)c3cccc(Br)c3C2=O)C(=O)N1 (centres undefined)  2.69%
83. Cc1cc(NS(=O)(=O)c2ccc(NC(=O)COc3ccccc3Cl)cc2)nc(C)n1  3.46%
84. Cc1ccc(OCC(=O)Nc2ccc(S(=O)(=O)Nc3cc(C)nc(C)n3)cc2)c(C)c1  3.49%
85. Cc1cc(C)nc(SCC(=O)Nc2ccc(S(=O)(=O)Nc3ncccn3)cc2)n1  3.9%
86. Cc1cc(C)nc(NS(=O)(=O)c2ccc(NS(=O)(=O)/C=C/c3ccccc3)cc2)n1  4.63%
87. CO[C@H]1CC[C@H](C(=O)N2CCOC(c3cccc(Nc4ncc(C)s4)n3)C2)CC1 (some centres undefined)  6.34%
88. COc1ccccc1CCC(=O)N1CCCC1c1cccc(Nc2nc(C)cs2)n1 (centres undefined)  7.08%
89. Cc1csc(Nc2cccc(C3CCN(C(=O)c4cnccn4)CC3)n2)n1  7.21%
90. CNc1cc(C(=O)N2CCOC(c3cccc(Nc4nc(C)c(C)s4)n3)C2)ccn1 (centres undefined)  8.12%
91. O=C(C1CCCCC1)N1CCOC(c2cccc(Nc3ncc(Cc4ccc(Cl)cc4)s3)n2)C1 (centres undefined)  10.4%
92. Cc1csc(Nc2cccc(C3CCCN3C(=O)CCOc3ccccc3C)n2)n1 (centres undefined)  11.5%
93. O=C(CCc1cccc(Cl)c1)N1CCOC(c2cccc(Nc3nccs3)n2)C1 (centres undefined)  14.7%
94. CC(=O)Nc1ccc(S(=O)(=O)N(Cc2ccccc2)c2ccccn2)cc1  17.3%
